# Results from PMC12820563.
# The other results are listed elsewhere or left out. The list includes weakly bound sequences.
# Molecular target: T1, MBP-FoxP3dN (UniProt Q99JB6)
# T1 sequence: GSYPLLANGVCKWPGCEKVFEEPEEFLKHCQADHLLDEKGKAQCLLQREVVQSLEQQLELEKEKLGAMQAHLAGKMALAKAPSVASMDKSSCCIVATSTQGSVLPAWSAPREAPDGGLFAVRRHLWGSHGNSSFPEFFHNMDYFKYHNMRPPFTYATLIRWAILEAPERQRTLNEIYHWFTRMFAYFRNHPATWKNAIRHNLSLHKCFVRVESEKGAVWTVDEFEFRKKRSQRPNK
# Assay: PD-seq (MBP pull-down with sequencing)
# Settings: 20 mM Tris-HCl pH 7.5, 100 mM NaCl, 1.5 mM MgCl2, 0.4 uM protein, 0.1 uM dsDNA library, 30 min, room temperature, amylose pull-down; high values mean tight binding; double strand, one strand shown
row,Sequence,binding signal (RPM ratio (pull-down/input))
1,GATGATTGTTCTCCCAGCTGATGAATTATAGAGATCGAGTAAACAAATTTTCCTAATCTTTCTGTTCAAGCGCCATCTAC,0.289
2,GATGATTGTTCTCCCAGCTGATGAATTAGTACTATCGAGTAAACAAATTTTCCTAATCTTTCTGTTCAAGCGCCATCTAC,0.906
3,GATGATTGTTCTCCCAGCTGATGAATTCGCCCTCTCGAGTAAACAAATTTTCCTAATCTTTCTGTTCAAGCGCCATCTAC,0.394
4,GATGATTGTTCTCCCAGCTGATGAATTACGTACATCGAGTAAACAAATTTTCCTAATCTTTCTGTTCAAGCGCCATCTAC,0.647
5,GATGATTGTTCTCCCAGCTGATGAATTCGTTTACTCGAGTAAACAAATTTTCCTAATCTTTCTGTTCAAGCGCCATCTAC,4.99
6,GATGATTGTTCTCCCAGCTGATGAATTGCGGGCGTCGAGTAAACAAATTTTCCTAATCTTTCTGTTCAAGCGCCATCTAC,0.866
7,GATGATTGTTCTCCCAGCTGATGAATTACATCGATCGAGTAAACAAATTTTCCTAATCTTTCTGTTCAAGCGCCATCTAC,0.436
8,GATGATTGTTCTCCCAGCTGATGAATTACAAACGTCGAGTAAACAAATTTTCCTAATCTTTCTGTTCAAGCGCCATCTAC,0.586
9,GATGATTGTTCTCCCAGCTGATGAATTTTCTAGGTCGAGTAAACAAATTTTCCTAATCTTTCTGTTCAAGCGCCATCTAC,0.18
10,GATGATTGTTCTCCCAGCTGATGAATTCTTTTGCTCGAGTAAACAAATTTTCCTAATCTTTCTGTTCAAGCGCCATCTAC,0.373
11,GATGATTGTTCTCCCAGCTGATGAATTTCGGTCCTCGAGTAAACAAATTTTCCTAATCTTTCTGTTCAAGCGCCATCTAC,0.404
12,GATGATTGTTCTCCCAGCTGATGAATTAAATCATTCGAGTAAACAAATTTTCCTAATCTTTCTGTTCAAGCGCCATCTAC,0.567
13,GATGATTGTTCTCCCAGCTGATGAATTCGCCCTATCGAGTAAACAAATTTTCCTAATCTTTCTGTTCAAGCGCCATCTAC,0.347
14,GATGATTGTTCTCCCAGCTGATGAATTAAGTGAGTCGAGTAAACAAATTTTCCTAATCTTTCTGTTCAAGCGCCATCTAC,0.771
15,GATGATTGTTCTCCCAGCTGATGAATTCCGAAAATCGAGTAAACAAATTTTCCTAATCTTTCTGTTCAAGCGCCATCTAC,0.153
16,GATGATTGTTCTCCCAGCTGATGAATTCTAAGTTTCGAGTAAACAAATTTTCCTAATCTTTCTGTTCAAGCGCCATCTAC,0.357
17,GATGATTGTTCTCCCAGCTGATGAATTGTGCGCTTCGAGTAAACAAATTTTCCTAATCTTTCTGTTCAAGCGCCATCTAC,2.13
18,GATGATTGTTCTCCCAGCTGATGAATTGCTAGGATCGAGTAAACAAATTTTCCTAATCTTTCTGTTCAAGCGCCATCTAC,0.411
19,GATGATTGTTCTCCCAGCTGATGAATTATGAAGTTCGAGTAAACAAATTTTCCTAATCTTTCTGTTCAAGCGCCATCTAC,0.371
20,GATGATTGTTCTCCCAGCTGATGAATTCTGCAGTTCGAGTAAACAAATTTTCCTAATCTTTCTGTTCAAGCGCCATCTAC,1.58

row,Sequence,binding signal (RPM ratio (pull-down/input))
1,GATGATTGTTCTCCCAGCTGATGAATTGTCCCATTCGAGTAAACAAATTTTCCTAATCTTTCTGTTCAAGCGCCATCTAC,0.448
2,GATGATTGTTCTCCCAGCTGATGAATTAGCATGATCGAGTAAACAAATTTTCCTAATCTTTCTGTTCAAGCGCCATCTAC,0.785
3,GATGATTGTTCTCCCAGCTGATGAATTAGGTACCTCGAGTAAACAAATTTTCCTAATCTTTCTGTTCAAGCGCCATCTAC,0.545
4,GATGATTGTTCTCCCAGCTGATGAATTCTATCTTTCGAGTAAACAAATTTTCCTAATCTTTCTGTTCAAGCGCCATCTAC,0.478
5,GATGATTGTTCTCCCAGCTGATGAATTTAAACCGTCGAGTAAACAAATTTTCCTAATCTTTCTGTTCAAGCGCCATCTAC,0.261
6,GATGATTGTTCTCCCAGCTGATGAATTCCTGATATCGAGTAAACAAATTTTCCTAATCTTTCTGTTCAAGCGCCATCTAC,0.354
7,GATGATTGTTCTCCCAGCTGATGAATTGGAGTGCTCGAGTAAACAAATTTTCCTAATCTTTCTGTTCAAGCGCCATCTAC,0.436
8,GATGATTGTTCTCCCAGCTGATGAATTGCAGCCCTCGAGTAAACAAATTTTCCTAATCTTTCTGTTCAAGCGCCATCTAC,0.85
9,GATGATTGTTCTCCCAGCTGATGAATTGGTTCACTCGAGTAAACAAATTTTCCTAATCTTTCTGTTCAAGCGCCATCTAC,0.405
10,GATGATTGTTCTCCCAGCTGATGAATTTCGCGGATCGAGTAAACAAATTTTCCTAATCTTTCTGTTCAAGCGCCATCTAC,0.283
11,GATGATTGTTCTCCCAGCTGATGAATTGTCTCATTCGAGTAAACAAATTTTCCTAATCTTTCTGTTCAAGCGCCATCTAC,0.539
12,GATGATTGTTCTCCCAGCTGATGAATTTGTAGTCTCGAGTAAACAAATTTTCCTAATCTTTCTGTTCAAGCGCCATCTAC,5.11
13,GATGATTGTTCTCCCAGCTGATGAATTGTGCCGGTCGAGTAAACAAATTTTCCTAATCTTTCTGTTCAAGCGCCATCTAC,1.15
14,GATGATTGTTCTCCCAGCTGATGAATTCAACTACTCGAGTAAACAAATTTTCCTAATCTTTCTGTTCAAGCGCCATCTAC,0.442
15,GATGATTGTTCTCCCAGCTGATGAATTAGTGCTCTCGAGTAAACAAATTTTCCTAATCTTTCTGTTCAAGCGCCATCTAC,0.804
16,GATGATTGTTCTCCCAGCTGATGAATTAAGTAGGTCGAGTAAACAAATTTTCCTAATCTTTCTGTTCAAGCGCCATCTAC,0.517
17,GATGATTGTTCTCCCAGCTGATGAATTCTACGCGTCGAGTAAACAAATTTTCCTAATCTTTCTGTTCAAGCGCCATCTAC,0.52
18,GATGATTGTTCTCCCAGCTGATGAATTCAAGGGCTCGAGTAAACAAATTTTCCTAATCTTTCTGTTCAAGCGCCATCTAC,0.231
19,GATGATTGTTCTCCCAGCTGATGAATTTAGCTTATCGAGTAAACAAATTTTCCTAATCTTTCTGTTCAAGCGCCATCTAC,2.42
20,GATGATTGTTCTCCCAGCTGATGAATTAATTACTTCGAGTAAACAAATTTTCCTAATCTTTCTGTTCAAGCGCCATCTAC,0.897
